The supplement of paper PMC4723716
± gives the uncertainty stated by the source. Over roughly 9,900 compounds, “viability index relative to DMSO control” has its median near 1; the lowest 2% begin near 0.85. The list shows a part of the results.

Tested on: Plasmodium falciparum NF54 stage V gametocytes
Test: viability index relative to DMSO control (fraction); higher = less gametocyte killing
Details: 2.5 µM, incubation time: 72 h
Description: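 Broad DOS informer set and blood-stage-active DOS compounds screened in duplicate at 2.5 µM against P. falciparum NF54 stage V gametocytes with the serum-free one-step SaLSSA (1536-well): 72 h at 37 °C under low oxygen, then saponin lysis and MitoTracker Red CMXRos staining, with high-content imaging. Viability index = viable-object count divided by the plate mean of DMSO wells (0 = killed, about 1 = inactive).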

[1] = library set: Broad Institute DOS
[2] = library set: Broad Institute Blood Stage

SMILES	viability index [1]	viability index [2]
Cc1noc(C)c1NC(=O)Nc1ccc2c(c1)C(=O)N([C@H](C)CO)C[C@H](C)[C@H](CN(C)S(=O)(=O)c1ccc(F)cc1)O2	0.986 ± 0.086	
COc1cccc(NC(=O)N2CC(=O)N3[C@H](CO)[C@@H](c4ccc(C#CCC5CCCC5)cc4)[C@@H]3C2)c1	1.03 ± 0.018	
CNC[C@H]1Oc2ccc(NC(=O)CCC(F)(F)F)cc2C(=O)N([C@H](C)CO)C[C@@H]1C	1.01 ± 0.024	
COc1ccc2c3c([C@@H](CO)N(Cc4ccc(F)cc4)C[C@]33CCN(C)CC3)n(C)c2c1	0.916 ± 0.1	
Cc1noc(C)c1NC(=O)N(C)C[C@@H]1OCc2ccccc2-c2c(n(C)c3ccccc23)C(=O)N([C@@H](C)CO)C[C@H]1C	1.02 ± 0.1	
C[C@@H]1CN([C@H](C)CO)C(=O)c2cc(NS(=O)(=O)c3cn(C)cn3)ccc2O[C@H]1CN(C)S(=O)(=O)c1ccc(F)cc1	0.919 ± 0.11	
C[C@@H]1CN([C@H](C)CO)C(=O)CCCn2nncc2CO[C@H]1CN(C)C(=O)Nc1ccc(-c2cccs2)cc1	1.096 ± 0.0014	
O=C(C[C@H]1CC[C@H]2[C@@H](COC[C@H](O)CN2C(=O)Cc2ccccc2)O1)NC1Cc2ccccc2C1	1.05 ± 0.091	
C[C@H]1CN([C@@H](C)CO)C(=O)CCCn2cc(nn2)CO[C@H]1CN(C)C(=O)CCC(F)(F)F	1.05 ± 0.013	
O=C(CCN1CCCCC1)NCC[C@H]1CC[C@@H](NS(=O)(=O)c2cccc(Cl)c2)[C@H](CO)O1	0.973 ± 0.044	
O=C(NC1CCCC1)N[C@H]1C=C[C@H](CC(=O)N2CCOCC2)O[C@@H]1CO	1.03 ± 0.033	
CN1c2ccc(Br)cc2[C@@H]2[C@@H](CCN2C(=O)CN2CCOCC2)[C@@H]1CO	1.09 ± 0.055	
O=C(CC1CC1)N1[C@@H]2CN(S(=O)(=O)c3ccccc3F)c3ccccc3[C@@H]2[C@@H]1CO	1.03 ± 0.048	
CN1C(=O)c2cc(NC(=O)C3CCOCC3)ccc2OC[C@@H]2O[C@@H](CC(=O)NCC3CCCCC3)CC[C@@H]21	1.14 ± 0.16	
COCC#Cc1ccc([C@@H]2[C@H](CO)N3C(=O)CN(C(=O)CN4CCOCC4)C[C@@H]23)cc1	1.02 ± 0.05	
CCCC(=O)N1CC[C@@]2(CC1)CN([C@@H](CO)c1[nH]c3cc(OC)ccc3c21)S(=O)(=O)c1ccc(C)cc1		0.655 ± 0.046
CCc1nc(N2[C@H](CO)[C@H](c3ccccc3-c3ccccc3C)[C@@H]2C#N)sc1C	1.06 ± 0.046	
C[C@H](NC(=O)C[C@@H]1C[C@@H]2c3cc(NS(=O)(=O)c4ccc(F)cc4)ccc3O[C@@H]2[C@H](CO)O1)c1ccccc1	1.06 ± 0.034	
COc1cccc(S(=O)(=O)N[C@H]2CC[C@@H](CC(=O)NC3Cc4ccccc4C3)O[C@H]2CO)c1	0.916 ± 0.086	
OC[C@@H]1[C@@H]2c3ccccc3NC[C@@H]2N1Cc1ccccc1Cl	0.979 ± 0.024	
C[C@H]1CN([C@@H](C)CO)C(=O)c2c(c3ccccc3n2C)-c2ccccc2CO[C@H]1CN(C)S(=O)(=O)c1ccc([N+](=O)[O-])cc1	1.04 ± 0.047	
CO[C@@H]1CN(C)C(=O)c2ccc(NC(=O)Nc3c(C)noc3C)cc2OC[C@H](C)N(CCC(F)(F)F)C[C@H]1C	1.09 ± 0.002	
O=C(CCN1CCCCC1)N[C@H]1CC[C@H](CC(=O)N2CCC(Cc3ccccc3)CC2)O[C@@H]1CO	1.05 ± 0.051	

SMILES	viability index [1]	viability index [2]
COCC(=O)Nc1ccc2c(c1)[C@@H]1C[C@H](CC(=O)N[C@@H](C)c3ccccc3)O[C@@H](CO)[C@@H]1O2	1.029 ± 0.0091	
COc1ccc(NC(=O)N(C)C[C@H]2Oc3c(NS(=O)(=O)c4c(C)noc4C)cccc3C(=O)N([C@@H](C)CO)C[C@H]2C)cc1	0.9888 ± 0.0037	
N#C[C@@H]1[C@H](c2ccccc2-c2ccccc2F)[C@@H](CO)N1C(=O)c1ccccn1	1.08 ± 0.12	
O=C(C[C@H]1CC[C@H]2[C@@H](COC[C@@H](O)CN2C(=O)c2cccnc2)O1)NCC1CC1	1.08 ± 0.055	
C[C@@H]1CN([C@@H](C)CO)C(=O)c2c(c3ccccc3n2C)-c2ccccc2CO[C@@H]1CN(C)Cc1cccc(C(F)(F)F)c1	0.839 ± 0.039	
O=S(=O)(c1ccc(F)cc1)N1CCCCN2[C@@H](CO)[C@H](c3ccc(-c4cncnc4)cc3)[C@@H]2C1	1.07 ± 0.038	
COc1ccc2c3c([nH]c2c1)[C@@H](CO)N(C)C[C@]31CCN(CC1)S(=O)(=O)c1cn(C)cn1	1.03 ± 0.0013	
CCS(=O)(=O)Nc1ccc2c(c1)C(=O)N(C)[C@@H]1CC[C@H](CC(=O)N[C@@H]3CCN(Cc4ccccc4)C3)O[C@@H]1CO2	1.05 ± 0.04	
C[C@@H]1CN([C@H](C)CO)C(=O)c2cccc(NC(=O)c3cnccn3)c2O[C@@H]1CN(C)C(=O)NC1CCCCC1	0.9634 ± 0.0088	
OC[C@H]1CC[C@@H]2O[C@H](CCc3ccc(C#CCc4ccccc4)cc3)[C@H](n3cc(-c4ccccc4)nn3)C[C@@H]2O1		0.781 ± 0.043
O=C(C[C@H]1C=C[C@H](NC(=O)C2CCOCC2)[C@H](CO)O1)NCCc1cscn1	1.12 ± 0.046	
COc1ccc2c3c([C@@H](CO)N(C)C[C@]33CN(C3)C(=O)Nc3c(C)noc3C)n(C)c2c1	1.04 ± 0.13	
O=C(Cc1cccnc1)N1CC2(C1)[C@@H](c1ccccc1)[C@@H](CO)N2C(=O)C1CCOCC1	1.11 ± 0.056	
N#C[C@H]1[C@@H](c2ccccc2-c2ccccc2F)[C@H](CO)N1C(=O)c1cccc(F)c1	1.133 ± 0.0059	
COc1ccc(S(=O)(=O)Nc2ccc3c(c2)C(=O)N([C@H](C)CO)C[C@H](C)[C@@H](CN(C)S(=O)(=O)c2ccc(Cl)cc2)OCCCC[C@H](C)O3)cc1	0.886 ± 0.03	
CO[C@H]1CN(C)C(=O)c2cccc(C#N)c2OCC[C@@H]2CC[C@@H](OC)[C@H](CN(C)C(=O)[C@@H]1C)O2	1.06 ± 0.023	
Cc1noc(C)c1S(=O)(=O)Nc1ccc2c(c1)C(=O)N([C@H](C)CO)C[C@H](C)[C@@H](CN(C)C(=O)Nc1cccc3ccccc13)OCCCC[C@@H](C)O2	1.012 ± 0.0031	
O=C(C[C@H]1CC[C@H]2[C@@H](COC[C@@H](O)CN2C(=O)Nc2cc(Cl)cc(Cl)c2)O1)N1CCOCC1	1.05 ± 0.079	
O=C1NCCOCn2nncc2CC[C@@H]1Cc1ccc(-c2ccccc2)cc1	1.01 ± 0.035	
CO[C@@H]1CN(C)C(=O)c2ccc(NC(=O)C3CCC3)cc2OC[C@H](C)N(Cc2ccccn2)C[C@@H]1C	1.02 ± 0.037	
CCCNC(=O)N1CC[C@@]2(CC1)CN([C@H](CO)c1[nH]c3cc(OC)ccc3c21)C(=O)COC	1.01 ± 0.044	
C[C@@H]1CN([C@@H](C)CO)C(=O)c2ccccc2-c2ccccc2CO[C@H]1CN(C)C(=O)Nc1ccc(-c2ccccc2)cc1	0.975 ± 0.018	
CNC[C@@H]1OCCCC[C@@H](C)Oc2ccc(NC(=O)Nc3ccc(OC)cc3)cc2C(=O)N([C@H](C)CO)C[C@H]1C	1.05 ± 0.011	

SMILES	viability index [1]	viability index [2]
CN1C(=O)c2cc(NC(=O)C3CCOCC3)ccc2OC[C@@H]2O[C@@H](CC(=O)NCC3CCCCC3)CC[C@H]21	1.11 ± 0.084	
COc1ccccc1CN1[C@@H]2CN(C(=O)c3cccnc3)c3ccccc3[C@@H]2[C@@H]1CO	1.03 ± 0.042	
CS(=O)(=O)Nc1ccc2c(c1)[C@H]1C[C@H](CC(=O)NCCc3ccccc3)O[C@@H](CO)[C@H]1O2	1.07 ± 0.012	
CC(C)NC(=O)N1[C@@H]2CN(C)c3ccccc3[C@@H]2[C@@H]1CO	1.05 ± 0.055	
COc1ccc(-c2ccccc2[C@@H]2[C@@H](C#N)N(C(=O)C3CCC3)[C@H]2CO)cc1	1.15 ± 0.092	
COc1ccc([C@H]2C/C=C\C[C@@H](c3cccc(Cl)c3)NC(=O)[C@H](c3ccccc3)CC(=O)N2)c(OC)c1	0.989 ± 0.1	
CN(C)C(=O)c1cccc(-c2cccc(-c3nc(C(=O)NC4CCCCC4)cc4c3[C@@H](CCO)N([S@](=O)C(C)(C)C)C4)c2)c1		0.954 ± 0.088
C[C@@H]1CN([C@@H](C)CO)C(=O)c2cc(NS(=O)(=O)c3ccc(F)cc3)ccc2O[C@@H](C)CCCCO[C@@H]1CN(C)C(=O)Nc1ccc2c(c1)OCO2	1.11 ± 0.14	
COCC(=O)Nc1ccc2c(c1)C(=O)N(C)[C@H]1CC[C@H](CC(=O)N3CCc4ccccc4C3)O[C@@H]1CO2	1.01 ± 0.016	
CO[C@H]1CN(C)C(=O)c2cc(NC(=O)C3CCCCC3)ccc2OC[C@@H](C)N(C(=O)c2ccccc2)C[C@@H]1C	1.03 ± 0.039	
O=C(C[C@H]1CC[C@@H]2[C@H](COC[C@@H](O)CN2C(=O)Nc2cc(Cl)cc(Cl)c2)O1)N1CCOCC1	0.96 ± 0.12	
N#C[C@@H]1[C@@H](c2ccc(C3=CCCCC3)cc2)[C@H](CO)N1C(=O)CN1CCOCC1	1.069 ± 0.0057	
COc1ccccc1-c1cnc2c(c1)C(=O)N([C@H](C)CO)C[C@@H](C)[C@@H](CN(C)C(=O)CC1CC1)O2	1.056 ± 0.0053	
Cc1cc(C(=O)Nc2cccc3c2O[C@@H](CN(C)C)[C@@H](C)CN([C@@H](C)CO)C3=O)n(C)n1	1.024 ± 0.0082	
C[C@@H]1CN([C@H](C)CO)S(=O)(=O)c2ccc(C#CC3(O)CCCC3)cc2O[C@@H]1CN(C)C(=O)Nc1cccc(F)c1	0.965 ± 0.016	
COc1ccc(-c2ccccc2[C@H]2[C@@H](CO)N(C(=O)NC3CCCCC3)[C@H]2C#N)cc1	1.18 ± 0.088	
CC(C)C#Cc1ccc([C@H]2[C@@H](CO)N3C(=O)CN(S(=O)(=O)c4ccccc4)C[C@@H]23)cc1	0.939 ± 0.059	
CC(C)COC(=O)N(C)C[C@H]1OCc2ccccc2-c2ccccc2C(=O)N([C@@H](C)CO)C[C@@H]1C	1.09 ± 0.021	
CC(=O)N1[C@H](CO)[C@H](c2ccccc2)[C@H]1CNC(=O)CN1CCOCC1	1.07 ± 0.026	
Cc1ccccc1-c1ccc([C@H]2[C@@H](CO)N3C(=O)CN(C(=O)c4ccncc4)C[C@H]23)cc1	1.03 ± 0.041	
C/C=C/c1ccc2n(c1=O)C[C@@H]1[C@@H](CO)[C@H](C(=O)N[C@H](C)c3ccccc3)[C@H]2N1Cc1cncnc1.C/C=C\c1ccc2n(c1=O)C[C@@H]1[C@@H](CO)[C@H](C(=O)N[C@H](C)c3ccccc3)[C@H]2N1Cc1cncnc1	1.03 ± 0.042	
Cc1ccc(-c2ccccc2[C@@H]2[C@H](C#N)N(C(=O)c3cccc(F)c3)[C@H]2CO)cc1	1.181 ± 0.0029	
